We go through 89 compounds from PubChem BioAssay (NCI).

This assay has as its system NCI-H322M lung. The assay is described as follows: NCI tumour cell line growth inhibition, 48 h.

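Step 1: Grow cells in 96-well plates. Step 2: Expose to compound for 48 hours at 5 concentrations. Step 3: Interpolate endpoints linearly; if unreached, use highest concentration. Abbreviation: GI50, concentration required for 50% inhibition of growth. At the TGI there is no net growth.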 Where only a bound is given, the exact number is not on record here.

For `CCOC(=O)CNc1nc(=O)c2c(=O)oc(Cl)cc2o1`, the TGI was found to be 88 µM. On the same count and under the same terms, the result for `Cc1cccc(C)c1NC(=O)Nc1ccc(S(N)(=O)=O)cc1` reads above 100 µM; that for `COc1ccc(C2C3COc4ccccc4C3=NN2c2ccccc2)cc1` (centres undefined), above 100 µM. On the same count and under the same terms, next, `c1csc(C[N+]23CN4CN(CN(C4)C2)C3)c1`: above 100 µM. The same measure, in the same setting: the result for `CCOC(=N)/C(=C1\OC(N)=C(c2ccc(Cl)cc2)C1=O)c1ccc(Cl)cc1` reads 43.3 µM. For the compound `COc1cc(Nc2nc3ccccc3cc2C(=O)Nc2ccc(F)c(F)c2)cc(OC)c1OC`, the GI50 was 3.67 µM and the TGI is above 100 µM. `Clc1ccc(C(SCc2ccccc2)SCc2ccccc2)cc1` returned a TGI above 10 µM. Take `COc1ccc(OC)c2c1[nH]c(=O)c1c3ncccc3cn21`: the GI50 is 4.35 µM and the TGI was above 100 µM. On to `COc1ccccc1CNCCCN1C(=O)c2ccc3c4c(ccc(c24)C1=O)C(=O)N(CCCCNCCCN)C3=O`, for which the GI50 is 2.14 µM and the TGI stood at 5.41 µM. Compound `Cc1ccc2nc(-c3ccc(N4C(=O)C(Cl)C4c4ccc(Cl)cc4)cc3)sc2c1` (centres undefined) displayed a TGI above 100 µM. The same measure, in the same setting: next, `O=C1C=CC(=O)c2cc(Sc3ccccc3)c(=O)ccc21`: 22.8 µM; `CCOP(=O)(OCC)C(C#N)Cc1ccco1` (centres undefined): above 10 µM; `O=[N+]([O-])c1ccc(C=NCC2CCCN3CCCCC23)cc1` (centres undefined): above 100 µM. Still for that read-out and setting: the result for `O=Cc1cccc2c1Oc1c(cccc1C(=O)O)S2` reads above 100 µM.

`Cn1c(=O)c2nc(-c3ccc(Cl)cc3)oc2n(C)c1=O` showed a TGI above 100 µM. Compound `CCCN(CCCC(NC(C)=O)C(=O)NCc1ccccc1)C(=O)NCCCl` (centres undefined) displayed a TGI above 100 µM.

`O=C(NCc1cccc2ccccc12)N/N=C\c1ccc(Cl)cc1` came in with a TGI above 100 µM.

Consider `C=C1CCC2C(C)(COC(=O)CC)C(OC(=O)CC)CCC2(C)C1C/C=C1/C(=O)OCC1OC(=O)CC` (centres undefined), for which the GI50 is 6.65 µM and the TGI came out at 19.2 µM. Taken in the same sequence, the figures for `OCC(O)c1nc2ccc3[nH]ncc3c2c2c1CCCC2` (centres undefined) were 1.33 µM and 14.2 µM. Taken in the same sequence, the figures for `CC(=O)[CH-]C(=O)c1ccccc1.CC(=O)[CH-]C(=O)c1ccccc1.CCOCC[O-].CCOCC[O-].[Ti+4]` were 35.7 µM and above 100 µM. Turning to `O=C1OC(O)C(Oc2c(Cl)cccc2Cl)=C1Cl` (centres undefined), the TGI was 58 µM. With `COC(=O)Cc1ccc(Oc2cnc3cc(F)c(F)cc3n2)cc1`, the GI50 was above 100 µM and the TGI was above 100 µM. In the case of `CCOC(=O)C(Cc1cccn1C(=O)OC(C)(C)C)[N+](=O)[O-]` (centres undefined), the TGI is above 100 µM. Regarding `Nc1nc(N)c2cc(NCc3ccc(Cl)c(Cl)c3)ccc2n1`, the GI50 is 1.04 µM and the TGI came out at 2.43 µM. For `CC1=NN(c2nc(N)nc(CC#N)n2)C(C)(C)C1`, the TGI is above 100 µM. The same measure, in the same setting: next, `CCOC(=O)C(C)(C)Oc1ccc(/C=C/C(=O)c2ccc(Cl)cc2)cc1`: above 100 µM. Same read-out and setting: the result for `CC(=O)OC1COC(Nc2nc(NCc3ccccc3)n(C)c(=O)c2N=O)C(OC(C)=O)C1OC(C)=O` (centres undefined) reads above 10 µM; that for `CCOP(=O)(OCC)C(N)c1ccc(Cl)cc1` (centres undefined), above 100 µM; that for `O=c1[nH]nc(Cc2ccccc2)n1CCO`, above 100 µM. `COc1ccc(OC)c(-c2cc(-c3ccc(Cl)cc3)nn2-c2ccc(S(=O)(=O)NC(C)=O)cc2)c1`: the GI50 is 18.8 µM and the TGI is 41.2 µM. Taken in the same sequence, the figures for `CCC(CNc1cc(OC)cc2cccnc12)NC1CCCCC1` (centres undefined) were 21.7 µM and above 100 µM.

For the compound `O=C(CNc1ccccc1[N+](=O)[O-])Nn1c(-c2ccccc2)nc2ccccc2c1=O`, the TGI was 41 µM. Still for that read-out and setting: the result for `CC/C(CC(=O)CCC(=O)Nc1ccccc1[N+](=O)[O-])=N/NC(=O)C[n+]1ccccc1` reads above 100 µM. Same read-out and setting: the result for `CC(=O)OC[C@@H](OC(C)=O)[C@H](OC(C)=O)[C@@H]1OC(C)(C)O[C@@H]1C1SCCCS1` reads above 100 µM; that for `Cc1ccc(NC(=O)CSc2nc(=O)[nH]c3nc[nH]c23)cc1`, above 100 µM. Same read-out and setting: the result for `Cc1cn([C@@H]2O[C@H](CO[Si](C)(C)C(C)(C)C)[C@]3(O[C@H]3C(=O)NN)[C@H]2O[Si](C)(C)C(C)(C)C)c(=O)[nH]c1=O` reads 25 µM; that for `CC(=O)OCC1OC(Oc2cc(C)c(O)cc2C/C=C(\C)CC/C=C(\C)CC(=O)CC(C)C)C(O)C(OC(C)=O)C1OC(C)=O` (centres undefined), 28.6 µM.

The compound `CC1C2(C)OC(=N)C(C#N)(C(c3cccc([N+](=O)[O-])c3)O2)C1(C#N)C#N` (centres undefined) displayed a TGI above 100 µM.

The compound `Clc1ccc(C2Nc3ccccc3C3=NCCN32)cc1` (centres undefined) yielded a TGI of 44.8 µM. On the same count and under the same terms, next, `O=[N+]([O-])c1cc2c(cc1/C=N/n1c(CO)nc3ccccc31)OCO2`: above 100 µM; `CCOC(=O)CC1(c2cccc3ccccc23)OC(=O)c2ccccc21` (centres undefined): above 100 µM; `CC(=O)NC1=C[C@@H]([C@H]2COC(C)(C)O2)OC1=O`: above 100 µM.

Regarding `O=C(N/N=C1/C(=O)c2c3ccccc3cc3cccc1c23)c1ccccc1`, the TGI was above 100 µM.

As to `N#Cc1c(-c2ccccc2)[nH]c(=O)n(C2OC(CO)C(O)C(O)C2O)c1=O` (centres undefined), the TGI was above 100 µM. Same read-out and setting: next, `Cc1c2c(OCCN3CCCCC3)nn(C)c(=O)c2c(C)n1-c1ccccc1`: above 100 µM. As to `O=C(O)/C(Cc1ccc([N+](=O)[O-])cc1)=N\O`, the TGI was above 100 µM. The same measure, in the same setting: next, `O=CC12C3CCC1C2C(=O)C3` (centres undefined): above 100 µM. The same measure, in the same setting: next, `CN1C(=O)C(=O)c2cc3c(c4c2c1cc1ccccc14)OCO3`: above 100 µM; `Cc1noc(NC2=CC(=O)C(=O)c3ccccc32)c1C`: above 100 µM. Still for that read-out and setting: next, `COc1cc2c(=O)cnoc2cc1O`: above 100 µM. Turning to `O=C1/C(=C\c2ccccn2)c2ccccc2N1c1c(Cl)cccc1Cl`, the GI50 is 2.72 µM and the TGI stood at 8.07 µM. Turning to `SCCSCCCSCCS`, the TGI was above 100 µM.

Turning to `CNC(=O)Cc1nc(-c2cccc(NS(=O)(=O)c3c(F)cccc3F)c2F)c(-c2ccnc(Nc3ccccc3)n2)s1`, the GI50 is 12.9 µM and the TGI was above 50 µM.

`CCOc1cccc2ccc[n+](CC)c12` displayed a TGI above 100 µM.

On to `COc1ccc2nc3cc([N+](=O)[O-])ccc3c(NCCCN(C)C)c2c1`, for which the GI50 was 0.178 µM and the TGI turned out to be 10.3 µM. Consider `S=C(c1c[nH]c2ccccc12)N1CCN(Cc2ccccc2)CC1`, for which the TGI was 52.7 µM. On the same count and under the same terms, next, `O=C1Nc2ccc(Cl)cc2/C1=C\c1c(Cl)nc2sccn12`: above 100 µM. In turn, `CCOC(=N)CC(=O)c1ccccc1` came in with a TGI above 100 µM. `Nc1ccc(C(=O)c2cn(CCN3CCOCC3)c3ccccc23)c2ccccc12` had a TGI above 100 µM. Consider `O=C(Nc1cccc(O)c1)C(=O)C(C(=O)c1ccc(Cl)c(Cl)c1)C1OC(=O)c2ccccc21` (centres undefined), for which the TGI was found to be 41.5 µM. On to `CCn1c(-c2cc3ccccc3cc2O)nn(C(=O)c2c(Cl)cccc2Cl)c1=S`, for which the GI50 is above 50 µM and the TGI was above 50 µM.

Compound `CC(C)(C)C(=O)OCC1CCC(n2cnc3c(=O)[nH]c(N)nc32)O1` (centres undefined) came in with a TGI above 100 µM. Still for that read-out and setting: next, `FC(F)(F)C1(Br)C(c2ccccc2)=C1c1ccccc1`: 99.2 µM. With `COC(=O)c1cc(O)c2c(c1C(=O)OC)C[C@H]1[C@@H]3CC=C4C[C@@H](O)CC[C@]4(C)[C@H]3CC[C@]21C`, the GI50 is 4.02 µM and the TGI worked out at 24.4 µM.

Take `Cc1c(C(=O)/C=C/c2ccccc2O)c(=O)n(-c2ccccc2)n1C`: the TGI is above 100 µM. The same measure, in the same setting: next, `COc1ccc(C2SCC(=O)N2NC(=O)c2ccc(NC(C)=O)cc2)cc1` (centres undefined): above 100 µM. For the compound `COc1cc(-c2nc(-c3nc4ccccc4[nH]3)cc3c2[nH]c2ccccc23)cc(OC)c1OC`, the GI50 was 44.1 µM and the TGI is above 100 µM. Taken in the same sequence, the figures for `N#CCN/C=C\C(=O)c1ccc(Cl)cc1` were 24.1 µM and above 100 µM. `N#C/C(=C1\SC(N=Nc2ccccc2)C(=O)N1c1ccccc1)c1nc2ccccc2[nH]1` (centres undefined): the TGI was above 100 µM.

For the compound `Cc1cc(Cl)ccc1NC(=O)C(=O)C(C(=O)c1ccc2ccccc2c1)C1OC(=O)c2ccccc21` (centres undefined), the TGI worked out at 34.6 µM.

`Cc1ccc2oc(=O)c(C(=O)Nc3nc(C45CC6CC(CC(C6)C4)C5)cs3)cc2c1` had a TGI above 100 µM. Still for that read-out and setting: the result for `COc1cc2c(cc1OC)C1(COc3cc(O)c(O)c(O)c3C1=O)C2` (centres undefined) reads above 50 µM. Still for that read-out and setting: next, `CCOC(=O)C(NC(=O)c1ccccc1)(N1CCOCC1)C(F)(F)F` (centres undefined): above 100 µM; `CN(C)c1nc(=Nc2cccc(Cl)c2)ss1`: above 100 µM; `CC[N+]1(C)CCC(O)(c2ccc(OC)cc2)C(C(=O)c2ccc(OC)cc2)C1` (centres undefined): 30.4 µM. Same read-out and setting: next, `CC(C)C1=CC23CCC4C(C)(C(=O)O)CCCC4(C)C2CC1C1C(=O)N(c2ccccc2)C(=O)C13` (centres undefined): 92.4 µM. Regarding `O=Cc1ccc(-c2ccc(-c3nc4ccccc4o3)cc2)o1`, the GI50 was above 100 µM and the TGI was above 100 µM. Regarding `CC(=O)N=C1N(/C=C2\C(=O)Oc3ccccc3C2=O)C(=O)/C(=C/c2ccc(NC(C)=O)cc2)N1C`, the TGI is above 100 µM. With `C=C(OC1C(C)=C2C(C1OC(=O)CCCCCCC)C(C)(OC(C)=O)CC(OC(=O)CCC)C1(O)C2OC(=O)C1(C)O)/C(C)=C/C` (centres undefined), the GI50 is below 0.0001 µM and the TGI is 10.2 µM. In turn, `CCCCCCCCCCCCCCCCOC[C@@H](COC(c1ccccc1)(c1ccccc1)c1ccccc1)O[P+](=S)OC` (some centres undefined) displayed a TGI of 17.7 µM. As for `CC(=O)On1c(-c2ccccc2-c2nc3ccccc3n2OC(C)=O)nc2ccccc21`, the TGI was above 100 µM. On the same count and under the same terms, next, `COc1ccc2cc(CN3CCC(C4CCNCC4)CC3)ccc2c1`: 5.37 µM. On to `O=S(=O)(/N=C(\NO)Nc1ccc(Cl)cc1)c1cccc2nsnc12`, for which the TGI was 92.7 µM. In the case of `CN1C(=O)N[C@H]2[C@@H]3NC(=O)c4ccc(Br)n4[C@@H]3C[C@]21O`, the GI50 was 0.388 µM and the TGI amounted to 4.78 µM.

The compound `CCNC(=O)c1c(O)c2ccccc2[nH]c1=O` yielded a TGI above 100 µM. The same measure, in the same setting: next, `C=C[C@@]1(O)CCCC2=C(C(=O)OCC)CC[C@]21C`: above 100 µM; `COc1ccc(OC)c(NS(=O)(=O)c2ccc3nc(C)n(NS(=O)(=O)c4cc(OC)ccc4OC)c(=O)c3c2)c1`: above 100 µM.

Consider `CC(C)C(N)=O`, for which the TGI is above 5000 µM. The same measure, in the same setting: next, `Cc1ccc(C)c(C2NC(=O)c3ccccc3N2)c1` (centres undefined): above 100 µM.
